Data as given in PubChem BioAssay AID588591 (National Center for Advancing Translational Sciences (NCATS), 2011).
About 4,700 (1.2%) of roughly 390,000 compounds were called active. This list was built around the results that the source calls inconclusive (neither active nor inactive); the mix of calls is not that of the screen. Calls follow the shape of the dose curve; as a rule, active = well fitted inhibition curve with a large enough effect; inconclusive = small, poorly fitted or top-dose-only effect, or another doubt; inactive = no such curve, though single readings can be large or run the other way. Potencies of inconclusive entries are doubtful fits and often do not repeat.

Biological target: DNA polymerase eta (Homo sapiens) (UniProt Q9Y253)
Experiment: qHTS for Inhibitors of Polymerase Eta
Conditions: recombinant Pol eta, fluorescent DNA replication assay; series mostly up to 114 µM; activity change, negative = inhibition: at the top concentration
Method in brief: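 Fluorescent replication assay: 50 nM final substrate added after a 15 min room-temperature compound preincubation with 10 nM enzyme. Signal taken at 0 min and again at 10 min.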
% is scaled to controls: 0 for no effect and ±100 for the full control effect; potency is read from the fitted curve at half-maximal effect; tags tell the direction and shape of the fitted curve.

Chain of UniProt Q9Y253 (Q9Y253 whole entry, looked up): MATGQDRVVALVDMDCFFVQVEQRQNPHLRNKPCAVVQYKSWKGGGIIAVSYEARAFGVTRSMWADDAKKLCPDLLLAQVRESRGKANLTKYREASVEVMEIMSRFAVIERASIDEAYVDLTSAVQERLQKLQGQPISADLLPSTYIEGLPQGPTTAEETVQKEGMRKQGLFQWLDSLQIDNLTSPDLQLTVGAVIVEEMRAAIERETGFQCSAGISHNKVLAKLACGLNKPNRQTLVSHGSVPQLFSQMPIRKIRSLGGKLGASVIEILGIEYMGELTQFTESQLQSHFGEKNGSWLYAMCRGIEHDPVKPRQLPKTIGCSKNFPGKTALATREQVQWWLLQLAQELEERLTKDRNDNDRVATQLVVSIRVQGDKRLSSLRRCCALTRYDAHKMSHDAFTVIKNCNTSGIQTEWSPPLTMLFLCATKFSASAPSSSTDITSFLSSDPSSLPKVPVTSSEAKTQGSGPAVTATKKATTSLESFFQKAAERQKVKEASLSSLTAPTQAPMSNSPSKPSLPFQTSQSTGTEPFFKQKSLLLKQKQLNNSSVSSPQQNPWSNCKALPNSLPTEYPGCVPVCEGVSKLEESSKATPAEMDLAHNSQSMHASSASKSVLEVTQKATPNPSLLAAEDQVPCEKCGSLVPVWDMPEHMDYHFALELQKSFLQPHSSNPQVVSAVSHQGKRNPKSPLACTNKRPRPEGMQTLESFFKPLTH

Row | SMILES | Potency | activity change, negative = inhibition
1 | Cc1cc(NC(=O)/C=C/c2cccc(F)c2)n(-c2nc3ccccc3[nH]2)n1 | inconclusive: 17.8 µM [inhibitor, single point] | 
2 | CCOC(=O)C1=C(C)N=c2s/c(=C/c3cccc([N+](=O)[O-])c3O)c(=O)n2C1c1ccc(OC)cc1OC (stereo not given) | active: 50.1 µM | 
3 | COc1cc(C(=S)N2CCOCC2)cc(OC)c1OC(=O)c1cc([N+](=O)[O-])c(C)c([N+](=O)[O-])c1 | inconclusive: 17.8 µM [inhibitor, partial curve] | 
4 | CC1(C)CCCN(C(=O)c2coc(=O)c(Br)c2)C1 | active: 0.891 µM | 
5 | C(=N\n1cnnc1SCc1ccccc1)/c1ccco1 | inconclusive: 22.4 µM [inhibitor, partial curve] | 
6 | Nc1cc(C(=O)OCC(=O)N2CCC(Cc3ccccc3)CC2)ccc1Cl |  | inactive: 1.32%
7 | N=c1c(S(=O)(=O)c2ccccc2)cc2c(=O)n3ccccc3nc2n1Cc1ccco1 | inconclusive: 31.6 µM [inhibitor, full curve, poor fit] | 
8 | C/C(=N\NC(=O)c1cccc(F)c1)c1ccc(NC(=O)Cc2ccccc2)cc1 |  | inactive: -22%
9 | COc1cccc(NS(=O)(=O)c2ccc3[nH]cc(C(=O)N4CCCCCC4)c(=O)c3c2)c1 | inconclusive: 100 µM [inhibitor, single point] | 
10 | O=C(CSc1nc2cc(Cl)ccc2s1)NC(=O)NCc1ccco1 | active: 35.5 µM | 
11 | O=[N+]([O-])c1ccc(/C=N/Nc2ccnc3cc(Cl)ccc23)o1 | inconclusive: 22.4 µM [inhibitor, partial curve, poor fit] | 
12 | CC1CCCN(S(=O)(=O)c2ccc(Br)s2)C1 (stereo not given) | inconclusive: 25.1 µM [inhibitor, single point] | 
13 | O=C(O)COc1ccccc1-c1nc(-c2ccccc2)c(-c2ccccc2)[nH]1 | inconclusive: 39.8 µM [inhibitor, partial curve, poor fit] | 
14 | CCOC(=O)c1c(-c2ccccc2)csc1NC(=O)/C(C#N)=C/c1ccc(O)c(OC)c1 | inconclusive: 31.6 µM [inhibitor, partial curve, poor fit] | 
15 | N#Cc1c(NC(=O)c2cnccn2)sc2c1CCCC2 | inconclusive: 12.6 µM [inhibitor, partial curve, poor fit] | 
16 | CN(C)CCCNc1nc(N)c([N+](=O)[O-])c(NCCO)n1 |  | inactive: -13.7%
17 | CCn1c(SCC(=O)Nc2nc3ccc(C)cc3s2)nc2c(c1=O)SC(C)C2 (stereo not given) | inconclusive: 0.794 µM [inhibitor, partial curve, poor fit] | 
18 | Oc1ccccc1C(=S)N1CCCCCC1 | inconclusive: 35.5 µM [inhibitor, partial curve] | 
19 | COc1cccc(C(=O)/C=C/Nc2cc(C)ccc2O)c1 | inconclusive: 79.4 µM [inhibitor, partial curve, poor fit] | 
20 | COCCN1C(=O)c2oc3ccccc3c(=O)c2C1c1ccc(OC)c(OC)c1 (stereo not given) | active: 22.4 µM | 
21 | Oc1cc(O)c2c(c1)O[C@H](c1ccc(O)c(O)c1)[C@H](O)C2 |  | inactive: -5.89%
22 | C=CCn1c(=N)c(C(=O)NCCCOC)cc2c(=O)n3cccc(C)c3nc21 | inconclusive: 39.8 µM [inhibitor, single point] | 

Row | SMILES | Potency | activity change, negative = inhibition
23 | N#Cc1cccc(NC(=O)CSc2ccc3c4c(cccc24)C(=O)c2ccccc2-3)c1 | inconclusive: 3.16 µM [inhibitor, full curve, poor fit] | 
24 | CCOc1ccccc1NC(=O)CSc1nc(N)c(C#N)cc1C#N | inconclusive: 31.6 µM [inhibitor, single point] | 
25 | COc1ccc(/C(C)=N/Nc2cccc(C(=O)O)c2)cc1OC | inconclusive: 31.6 µM [inhibitor, partial curve, poor fit] | 
26 | COC(=O)c1ccccc1CSc1nsc(/C=C/N(C)C)c1C#N | inconclusive: 89.1 µM [inhibitor, partial curve] | 
27 | CC1(C(=O)OCC(=O)Nc2ncc(Cl)cc2Cl)CC1(Cl)Cl (stereo not given) | inconclusive: 14.1 µM [inhibitor, partial curve] | 
28 | COc1ccc(C(=O)Nc2nc3ccccc3[nH]2)cc1OC |  | inactive: -10.5%
29 | COCCN1C(=O)C(CC(=O)Nc2ccc(C(=O)O)cc2)SC1=Nc1ccccc1 (stereo not given) |  | inactive: -22.3%
30 | O=C(Nc1ccc2c(c1)OCO2)c1cc2nc(C3CC3)cc(C(F)(F)F)n2n1 | inconclusive: 79.4 µM [inhibitor, partial curve] | 
31 | CC(C)C1C(=O)N(Cc2cn(CCC3OCCO3)nn2)CCS(=O)(=O)N1Cc1ccc(-c2ccc(F)cc2)cc1 (stereo not given) | inconclusive: 89.1 µM [inhibitor, partial curve, poor fit] | 
32 | COc1cccc(CNC(=O)CCc2cn(Cc3ccccc3Cl)c3ccccc23)c1 |  | inactive: -14.4%
33 | CCOc1ccc(/C=N/NC(=O)c2cc3c(OC)cc(OC)c(OC)c3[nH]2)cc1 | inconclusive: 15.8 µM [inhibitor, full curve, poor fit] | 
34 | CC(C)Cc1nc(SCC(=O)N2CCOCC2)c2c(=O)n(C)c(=O)n(C)c2n1 | inconclusive: 35.5 µM [inhibitor, partial curve, poor fit] | 
35 | COC(=O)C(=O)C1CCc2c(Cl)cc(OC)c(OC)c2C1=O (stereo not given) | inconclusive: 31.6 µM [inhibitor, partial curve] | 
36 | O=C(NC1CCCCC1)C(c1ccncc1)N(C(=O)c1csnn1)c1ccccc1F (stereo not given) | inconclusive: 100 µM [inhibitor, partial curve, poor fit] | 
37 | O=C(O)COc1ccccc1C1C2C(=O)N(c3ccccc3)C(=O)C2ON1c1ccccc1 (stereo not given) | inconclusive: 25.1 µM [inhibitor, single point] | 
38 | CCOCCCN1C(=O)CN(C2CCCCCC2)C(=O)C1c1ccc(OC(C)C)c(OC)c1 (stereo not given) |  | inactive: -12.4%
39 | CCC1CCCCN1S(=O)(=O)c1ccc(C(=O)Nc2sc3c(c2C(=O)NC)CCC3)cc1 (stereo not given) |  | inactive: -5.11%
40 | CCCCn1c(N)c(N(CC(C)C)C(=O)c2oc3ccc(OC)cc3c2C)c(=O)[nH]c1=O | inconclusive: 39.8 µM [inhibitor, single point] | 
41 | C=CCn1c(SCC(=O)NCCCC)nc2scc(-c3ccco3)c2c1=O | active: 10 µM | 
42 | COc1ccc(CN(C(=O)/C=C/c2ccco2)C2CCS(=O)(=O)C2)cc1 (stereo not given) | active: 50.1 µM | 
43 | COc1ccc(/C=N/NC(=O)c2ccc(CSc3nc(C)cc(C)n3)cc2)cc1O | inconclusive: 14.1 µM [inhibitor, full curve] | 
44 | Cc1ccc(C(=O)n2c(-c3ccccc3)cnc2SCC(=O)Nc2ccccc2)cc1 | inconclusive: 89.1 µM [inhibitor, partial curve, poor fit] | 

Row | SMILES | Potency | activity change, negative = inhibition
45 | Cc1ccc(CSc2ncc(Cl)c(C(=O)NCCc3ccc(S(N)(=O)=O)cc3)n2)cc1 | inconclusive: 39.8 µM [inhibitor, partial curve, poor fit] | 
46 | COc1cc(NC(=O)c2ccc3c(SCC(=O)O)c4c(nc3c2)CCC4)cc(OC)c1OC | active: 17.8 µM | 
47 | Cc1ccc([C@@H]2CC=C(C(=O)O)[C@H](c3ccc(C(C)(C)C)cc3)N2S(=O)(=O)c2ccc(C)cc2)cc1 | active: 89.1 µM | 
48 | O=C(Nc1ccnn1C1CCN(Cc2c[nH]c3ccccc23)CC1)c1ccccc1 |  | inactive: -9.58%
49 | Cc1cc(NC(=O)CSc2nnc(-c3cccnc3)n2N)no1 | inconclusive: 35.5 µM [inhibitor, partial curve, poor fit] | 
50 | CCC(C)NC(=S)N1CCN(C(c2ccccc2)c2ccccc2)CC1 (stereo not given) | inconclusive: 28.2 µM [inhibitor, partial curve, poor fit] | 
51 | CCCCCCCCCCCCN1C(=O)CSC1c1cccnc1 (stereo not given) | inconclusive: 31.6 µM [inhibitor, partial curve, poor fit] | 
52 | CCCC/C(O)=C1\C(=O)CCCC1=NCCc1c(C)[nH]c2ccccc12 | inconclusive: 79.4 µM [inhibitor, partial curve, poor fit] | 
53 | O=C(COc1ccccc1)OCc1csc(Nc2ccccc2)n1 | inconclusive: 100 µM [inhibitor, partial curve, poor fit] | 
54 | O=C(O)c1cc(-c2ccc(/C=N/Nc3ccc(Cl)cc3)o2)ccc1Cl | inconclusive: 89.1 µM [inhibitor, single point] | 
55 | O=C(NCC(c1ccco1)N1CCc2ccccc2C1)c1ccc(Cl)cc1 (stereo not given) |  | inactive: -19%
56 | O=C(Nc1nnc(S(=O)(=O)N2CCOCC2)s1)c1ccccc1 | active: 39.8 µM | 
57 | CCOC(=O)c1c(C)oc2ccc(NS(=O)(=O)c3ccc4c5c(cccc35)C(=O)N4)cc12 | inconclusive: 11.2 µM [inhibitor, partial curve, poor fit] | 
58 | COc1cc(C2C(=O)N(C3CCCCC3)CC(=O)N2Cc2ccc(C)cc2)ccc1OC(C)C (stereo not given) |  | inactive: -22.4%
59 | Cc1cc(OCc2cc(C(=O)N(C)Cc3ccccn3)no2)cc(C)c1Cl | inconclusive: 89.1 µM [inhibitor, partial curve, poor fit] | 
60 | Cc1ccc(NC(=O)CN2C(=O)S/C(=C/c3ccc(O)c([N+](=O)[O-])c3)C2=O)cc1C | active: 44.7 µM | 
61 | CC(=O)c1cccc(NC(=O)Cc2cccs2)c1 | inconclusive: 89.1 µM [inhibitor, single point] | 
62 | O=C(N/N=C/c1c(O)n(-c2ccc(Cl)cn2)c(=O)c2ccccc12)c1ccncc1 | inconclusive: 35.5 µM [inhibitor, partial curve] | 
63 | O=C(Nc1ccc(Cl)cc1F)c1ccc(COc2c(F)c(F)c(F)c(F)c2F)o1 | active: 20 µM | 
64 | CCCOc1cccc(C(=O)Nc2cccc(NC(=O)c3ccc(C(C)(C)C)cc3)c2)c1 |  | inactive: -20.1%
65 | CCOc1ccc(/C=C2/SC(=S)N(CCC(=O)Nc3ccc(C(=O)O)cc3)C2=O)cc1 | active: 8.91 µM | 
